Results from US11000038B2, “Pyridone compounds and agricultural and horticultural fungicides containing the same as active ingredients” (priority 2017, dated 2021).

Tests used:
[1] = tested on: gray mold fungi (Botrytis cinerea); assay: Test Example B: tomato gray mold, spray treatment of tomato plants; conditions: for Test B control value class (tomato gray mold): control value=100{1-(n/3)}; for Test B control value: tomato gray mold
[2] = tested on: grape downy mildew fungus (Plasmopara viticola); assay: Test Example G: grape downy mildew, spray treatment of grape plants; conditions: for Test G control value class (grape downy mildew): 2.5 ml/pot, grape Neomuscat, 7 to 10 days from inoculation; for Test G control value: grape downy mildew, 7 to 10 days after inoculation
[3] = tested on: wheat brown rust fungi (Puccinia recondita); assay: Test Example E: wheat brown rust, spray treatment of wheat plants; format: in vivo; conditions: for Test E control value class (wheat brown rust): control value=100{1-(n/3)}; for Test E control value: wheat brown rust
[4] = tested on: cabbage Alternaria sooty spot fungi (Alternaia brassicicola); assay: Test Example C: cabbage Alternaria sooty spot, spray treatment of cabbage plants; format: in vivo; conditions: for Test C control value class (cabbage Alternaria sooty spot): control value=100{1-(n/3)}; for Test C control value: cabbage Alternaria sooty spot
From the text: [Test Example C] Cabbage Alternaria Sooty Spot
Test plants (cabbage variety: Shikidori) were cultivated until the cotyledons extended after the sowing of seeds.
<Control Value> Control value=100{1−(n/3)}

[5] = tested on: barley powdery mildew fungi (Blumeria graminis f. sp. hordei); assay: Test Example D: barley powdery mildew, spray treatment of barley plants; conditions: for Test D control value class (barley powdery mildew): control value=100{1-(n/3)}; for Test D control value: barley powdery mildew
[6] = spray treatment of tomato plants
[7] = spray treatment of wheat plants
[8] = spray treatment of cabbage plants
[9] = spray treatment of barley plants

| SMILES | Test B control value class (tomato gray mold) [1, 6] | Test G control value class (grape downy mildew) ([2]; 250 ppm spray) | Test E control value class (wheat brown rust) [3, 7] | Test C control value class (cabbage Alternaria sooty spot) [4, 8] | Test D control value class (barley powdery mildew) [5, 9] | Test B control value [1, 6] | Test G control value ([2]; 250 ppm spray (2.5 ml/pot)) | Test E control value [3, 7] | Test C control value [4, 8] | Test D control value [5, 9] | Test B control value ([1]; spray treatment) | Test G control value ([2]; 250 ppm spray) | Test E control value ([3]; spray treatment) | Test C control value ([4]; spray treatment) | Test D control value ([5]; spray treatment) |
| --- | --- | --- | --- | --- | --- | --- | --- | --- | --- | --- | --- | --- | --- | --- | --- |
| CC(C)n1cc(Cl)c(=O)c(Br)c1-c1c(F)cc(F)cc1F [Compound 11] | L (L shows the control value of 50% or less) | L (L shows the control value of 50% or less) | H (H shows the control value of more than 50%) | H (H shows the control value of more than 50%) | H (H shows the control value of more than 50%) | – | – | – | – | – | – | – | – | – | – |
| Cc1cccc(F)c1-n1cc(Cl)c(=O)c(Cl)c1-c1c(F)cc(F)cc1F [Compound 291] | – | – | – | – | – | H (H shows the control value of more than 50%) | L (L shows the control value of 50% or less) | H (H shows the control value of more than 50%) | H (H shows the control value of more than 50%) | L (L shows the control value of 50% or less) | – | – | – | – | – |
| Cc1ccc(-n2cc(Br)c(=O)c(Cl)c2-c2c(F)cc(F)cc2F)c(C)c1 [Compound 256] | – | – | – | – | – | H (H shows the control value of more than 50%) | L (L shows the control value of 50% or less) | H (H shows the control value of more than 50%) | H (H shows the control value of more than 50%) | L (L shows the control value of 50% or less) | – | – | – | – | – |
| Cc1ccc([N+](=O)[O-])cc1-n1cc(Br)c(=O)c(Cl)c1-c1c(F)cc(F)cc1F [Compound 324] | – | – | – | – | – | H (H shows the control value of more than 50%) | H (H shows the control value of more than 50%) | H (H shows the control value of more than 50%) | H (H shows the control value of more than 50%) | L (L shows the control value of 50% or less) | – | – | – | – | – |
| CCc1c(-c2c(F)cc(F)cc2F)n(-c2cccc(Cl)c2C)cc(Br)c1=O [Compound 515] | – | – | – | – | – | – | – | – | – | – | H (H shows the control value of more than 50%) | L (L shows the control value of 50% or less) | H (H shows the control value of more than 50%) | H (H shows the control value of more than 50%) | H (H shows the control value of more than 50%) |
| O=c1c(Cl)cn(CCCC(F)(F)F)c(-c2c(F)cc(F)cc2F)c1Br [Compound 70] | L (L shows the control value of 50% or less) | L (L shows the control value of 50% or less) | H (H shows the control value of more than 50%) | H (H shows the control value of more than 50%) | L (L shows the control value of 50% or less) | – | – | – | – | – | – | – | – | – | – |
| O=c1c(Cl)cn(Cc2ccccc2Cl)c(-c2c(F)cc(F)cc2F)c1I [Compound 89] | H (H shows the control value of more than 50%) | H (H shows the control value of more than 50%) | H (H shows the control value of more than 50%) | H (H shows the control value of more than 50%) | L (L shows the control value of 50% or less) | – | – | – | – | – | – | – | – | – | – |
| Cc1ncccc1-n1cc(Br)c(=O)c(Cl)c1-c1c(F)cc(F)cc1F [Compound 458] | – | – | – | – | – | – | – | – | – | – | H (H shows the control value of more than 50%) | H (H shows the control value of more than 50%) | H (H shows the control value of more than 50%) | H (H shows the control value of more than 50%) | H (H shows the control value of more than 50%) |
| O=c1c(Br)cn(-c2ccon2)c(-c2c(F)cc(F)cc2F)c1Br [Compound 127] | H (H shows the control value of more than 50%) | L (L shows the control value of 50% or less) | H (H shows the control value of more than 50%) | H (H shows the control value of more than 50%) | L (L shows the control value of 50% or less) | – | – | – | – | – | – | – | – | – | – |
| COc1cc(F)c(-c2c(C)c(=O)c(C)cn2-c2cccc(F)c2C)c(F)c1 [Compound 440] | – | – | – | – | – | – | – | – | – | – | H (H shows the control value of more than 50%) | L (L shows the control value of 50% or less) | H (H shows the control value of more than 50%) | H (H shows the control value of more than 50%) | H (H shows the control value of more than 50%) |
| CCc1c(-c2ccccc2)n(-c2cc(Br)ccc2C)cc(Br)c1=O [Compound 499] | – | – | – | – | – | – | – | – | – | – | L (L shows the control value of 50% or less) | L (L shows the control value of 50% or less) | L (L shows the control value of 50% or less) | L (L shows the control value of 50% or less) | L (L shows the control value of 50% or less) |
| Cc1cn(-c2ccccc2)c(-c2ccccc2Br)c(C)c1=O [Compound 578] | – | – | – | – | – | – | – | – | – | – | H (H shows the control value of more than 50%) | L (L shows the control value of 50% or less) | H (H shows the control value of more than 50%) | H (H shows the control value of more than 50%) | L (L shows the control value of 50% or less) |
| Cc1cn(-c2ccccc2)c(-c2c(F)cccc2Cl)c(C)c1=O [Compound 589] | – | – | – | – | – | – | – | – | – | – | H (H shows the control value of more than 50%) | L (L shows the control value of 50% or less) | H (H shows the control value of more than 50%) | H (H shows the control value of more than 50%) | H (H shows the control value of more than 50%) |
| CCOC(=O)Cn1cc(Cl)c(=O)c(Cl)c1-c1c(F)cc(F)cc1F [Compound 145] | L (L shows the control value of 50% or less) | H (H shows the control value of more than 50%) | H (H shows the control value of more than 50%) | H (H shows the control value of more than 50%) | L (L shows the control value of 50% or less) | – | – | – | – | – | – | – | – | – | – |
| CC(C)Cn1cc(Cl)c(=O)c(Br)c1-c1c(F)cc(F)cc1F [Compound 108] | H (H shows the control value of more than 50%) | H (H shows the control value of more than 50%) | H (H shows the control value of more than 50%) | H (H shows the control value of more than 50%) | H (H shows the control value of more than 50%) | – | – | – | – | – | – | – | – | – | – |
| Cc1cccc(C)c1-n1cc(Br)c(=O)c(Br)c1-c1c(F)cc(F)cc1F [Compound 301] | – | – | – | – | – | L (L shows the control value of 50% or less) | H (H shows the control value of more than 50%) | H (H shows the control value of more than 50%) | H (H shows the control value of more than 50%) | L (L shows the control value of 50% or less) | – | – | – | – | – |
| CCCOc1cccc(-n2cc(Br)c(=O)c(Br)c2-c2c(F)cc(F)cc2F)c1C [Compound 423] | – | – | – | – | – | – | – | – | – | – | H (H shows the control value of more than 50%) | H (H shows the control value of more than 50%) | H (H shows the control value of more than 50%) | L (L shows the control value of 50% or less) | H (H shows the control value of more than 50%) |
| CCc1ccccc1-n1cc(C)c(=O)c(CC)c1-c1c(F)cc(F)cc1F [Compound 489] | – | – | – | – | – | – | – | – | – | – | H (H shows the control value of more than 50%) | H (H shows the control value of more than 50%) | H (H shows the control value of more than 50%) | H (H shows the control value of more than 50%) | H (H shows the control value of more than 50%) |
| COc1cc(F)c(-c2c(Cl)c(=O)c(Br)cn2-c2cc(OC)ccc2C)c(F)c1 [Compound 279] | – | – | – | – | – | H (H shows the control value of more than 50%) | L (L shows the control value of 50% or less) | H (H shows the control value of more than 50%) | H (H shows the control value of more than 50%) | H (H shows the control value of more than 50%) | – | – | – | – | – |
| COCCOc1ccc(C)c(-n2cc(C)c(=O)c(C)c2-c2c(F)cc(F)cc2F)c1 [Compound 315] | – | – | – | – | – | H (H shows the control value of more than 50%) | L (L shows the control value of 50% or less) | H (H shows the control value of more than 50%) | H (H shows the control value of more than 50%) | H (H shows the control value of more than 50%) | – | – | – | – | – |
